Among the targets are SHP2 C-SH2 domain E139D; SHP2 N-SH2 domain L43F; SHP2 N-SH2 domain T42A; SHP2 N-SH2 domain T52S.
Assay in all cases: enrichment score (SH2-bound / input frequency) (ratio); bacterial display of known human phosphotyrosine sites (pTyr-Var adds point mutants) read by sequencing; higher = stronger binding; tyrosines were phosphorylated by kinases first
What all share (settings): peptide library: pTyr-Var

For assay [1], the target named is SHP2 C-SH2 domain wild-type.
Assay [2] deals with SHP2 N-SH2 domain wild-type.

The list shows a part of the results. No stated cut-off is given here; in the data, active = 3.2 or more and inactive = the rest. Most of these values are background signal.
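Further: displayed peptides selected on beads carrying the immobilized SH2 domain, with library peptides lacking any tyrosine serving as negative controls.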

For the molecule LSCVIYVILRK [PMP22_Y153_G150C], the enrichment score was inactive: 0.295 in the assay with SHP2 C-SH2 domain E139D; inactive: 0.495 in assay [1]; inactive: 0.311 with SHP2 N-SH2 domain L43F; inactive: 0.383 with SHP2 N-SH2 domain T42A; inactive: 0.415 with SHP2 N-SH2 domain T52S; inactive: 0.514 in assay [2].

As for DFPGIYSGYDD [POLR1C_Y33_N32I], the enrichment score with SHP2 C-SH2 domain E139D was inactive: 1.33; in assay [1], inactive: 0.819; with SHP2 N-SH2 domain L43F it was inactive: 0.948; with SHP2 N-SH2 domain T42A, inactive: 0.905; with SHP2 N-SH2 domain T52S, inactive: 1.13; in assay [2] it was inactive: 0.919.

As to LNTFHHAGVSA [POLR2A_Y1109_Y1109H], the enrichment score in the assay with SHP2 C-SH2 domain E139D is inactive: 1.52; in assay [1], inactive: 1.4; with SHP2 N-SH2 domain L43F it was inactive: 1.51; in the assay with SHP2 N-SH2 domain T42A it was inactive: 1.38; in the assay with SHP2 N-SH2 domain T52S it was inactive: 1.6; in assay [2] it was inactive: 1.24.

With ETLLFYGCRRS [POR_Y564_YF], the enrichment score with SHP2 C-SH2 domain E139D was inactive: 0.32; in assay [1], inactive: 0.336; with SHP2 N-SH2 domain L43F, inactive: 0.232; with SHP2 N-SH2 domain T42A it was inactive: 0.357; with SHP2 N-SH2 domain T52S, inactive: 0.314; in assay [2], inactive: 0.37.

RDLHTYIMPAH [PNMT_Y256_R254H]: the enrichment score with SHP2 C-SH2 domain E139D was inactive: 1.42; in assay [1], inactive: 1.39; with SHP2 N-SH2 domain L43F, inactive: 1.17; in the assay with SHP2 N-SH2 domain T42A, inactive: 1.03; with SHP2 N-SH2 domain T52S, inactive: 1.07; in assay [2], inactive: 1.22.

With NGLVAYKDGKL [PMM2_Y76], the enrichment score with SHP2 C-SH2 domain E139D was inactive: 0.913; in assay [1], inactive: 0.887; with SHP2 N-SH2 domain L43F, inactive: 0.689; in the assay with SHP2 N-SH2 domain T42A, inactive: 0.749; with SHP2 N-SH2 domain T52S, inactive: 0.823; in assay [2], inactive: 0.851.

For the molecule RSDEDYLYREE [POR_Y573], the enrichment score is inactive: 0.386 in the assay with SHP2 C-SH2 domain E139D; inactive: 0.562 in assay [1]; inactive: 0.354 in the assay with SHP2 N-SH2 domain L43F; inactive: 0.411 in the assay with SHP2 N-SH2 domain T42A; inactive: 0.598 with SHP2 N-SH2 domain T52S; inactive: 0.606 in assay [2].

Turning to LLKAKYELLNA [POLR3A_Y714], the enrichment score with SHP2 C-SH2 domain E139D is inactive: 1.57; in assay [1] it was inactive: 1.11; with SHP2 N-SH2 domain L43F it was inactive: 1.15; with SHP2 N-SH2 domain T42A, inactive: 1.35; with SHP2 N-SH2 domain T52S, inactive: 1.57; in assay [2], inactive: 1.23.

With GIFSGYDDAWD [POLR1C_Y36_N32I_YF], the enrichment score with SHP2 C-SH2 domain E139D is inactive: 0.915; in assay [1], inactive: 0.881; in the assay with SHP2 N-SH2 domain L43F, inactive: 0.75; with SHP2 N-SH2 domain T42A, inactive: 0.717; with SHP2 N-SH2 domain T52S, inactive: 0.73; in assay [2], inactive: 0.948.

In the case of SAAAIYTVRHP [PMP22_Y117], the enrichment score in the assay with SHP2 C-SH2 domain E139D is inactive: 0.744; in assay [1], inactive: 0.789; in the assay with SHP2 N-SH2 domain L43F it was inactive: 0.721; in the assay with SHP2 N-SH2 domain T42A it was inactive: 0.66; with SHP2 N-SH2 domain T52S it was inactive: 0.793; in assay [2] it was inactive: 0.988.

As to KVALPYKPYFY [POLE_Y100], the enrichment score with SHP2 C-SH2 domain E139D was inactive: 1.47; in assay [1], inactive: 1.5; with SHP2 N-SH2 domain L43F, inactive: 1.23; with SHP2 N-SH2 domain T42A, inactive: 0.956; with SHP2 N-SH2 domain T52S it was inactive: 1.43; in assay [2], inactive: 1.31.

Consider GNFSGYDDAWD [POLR1C_Y36_YF], for which the enrichment score in the assay with SHP2 C-SH2 domain E139D was inactive: 0.71; in assay [1], inactive: 0.68; with SHP2 N-SH2 domain L43F it was inactive: 0.673; in the assay with SHP2 N-SH2 domain T42A, inactive: 0.552; in the assay with SHP2 N-SH2 domain T52S it was inactive: 0.665; in assay [2], inactive: 0.677.

Turning to KVALLYKPFFF [POLE_Y100_P99L_YF], the enrichment score is active: 3.51 with SHP2 C-SH2 domain E139D; active: 3.26 in assay [1]; active: 3.43 with SHP2 N-SH2 domain L43F; active: 3.3 with SHP2 N-SH2 domain T42A; active: 3.46 in the assay with SHP2 N-SH2 domain T52S; inactive: 3.17 in assay [2].

RSDEDYLFREE [POR_Y573_YF]: the enrichment score is inactive: 0.486 with SHP2 C-SH2 domain E139D; inactive: 0.639 in assay [1]; inactive: 0.468 in the assay with SHP2 N-SH2 domain L43F; inactive: 0.559 with SHP2 N-SH2 domain T42A; inactive: 0.724 in the assay with SHP2 N-SH2 domain T52S; inactive: 0.489 in assay [2].

Consider GIYSGYDDAWD [POLR1C_Y36_N32I], for which the enrichment score is inactive: 0.855 with SHP2 C-SH2 domain E139D; inactive: 0.638 in assay [1]; inactive: 0.722 in the assay with SHP2 N-SH2 domain L43F; inactive: 0.74 with SHP2 N-SH2 domain T42A; inactive: 0.89 with SHP2 N-SH2 domain T52S; inactive: 0.799 in assay [2].

For the molecule DFPGNYSGFDD [POLR1C_Y33_YF], the enrichment score was inactive: 0.683 with SHP2 C-SH2 domain E139D; inactive: 0.602 in assay [1]; inactive: 0.528 in the assay with SHP2 N-SH2 domain L43F; inactive: 0.458 with SHP2 N-SH2 domain T42A; inactive: 0.526 with SHP2 N-SH2 domain T52S; inactive: 0.574 in assay [2].

Turning to ETLLFYGFRRS [POR_Y564_C566Y_YF], the enrichment score is inactive: 0.224 with SHP2 C-SH2 domain E139D; inactive: 0.326 in assay [1]; inactive: 0.266 with SHP2 N-SH2 domain L43F; inactive: 0.314 with SHP2 N-SH2 domain T42A; inactive: 0.456 with SHP2 N-SH2 domain T52S; inactive: 0.248 in assay [2].

As for DFPGIYSGFDD [POLR1C_Y33_N32I_YF], the enrichment score with SHP2 C-SH2 domain E139D was inactive: 1.11; in assay [1], inactive: 0.906; in the assay with SHP2 N-SH2 domain L43F, inactive: 0.937; with SHP2 N-SH2 domain T42A it was inactive: 0.843; with SHP2 N-SH2 domain T52S, inactive: 0.961; in assay [2], inactive: 0.858.

LSGVIYVILGK [PMP22_Y153_R157G]: the enrichment score is inactive: 1.62 with SHP2 C-SH2 domain E139D; inactive: 2.12 in assay [1]; inactive: 1.86 with SHP2 N-SH2 domain L43F; inactive: 1.6 with SHP2 N-SH2 domain T42A; inactive: 1.55 with SHP2 N-SH2 domain T52S; inactive: 2.4 in assay [2].
